# Experimental data from PubChem BioAssay AID1745845 (National Center for Advancing Translational Sciences (NCATS), 2022).
# About 2,600 (0.72%) of roughly 360,000 compounds were called active. This list was built around the results that the source calls inconclusive (neither active nor inactive); the mix of calls is not that of the screen. Calls come from the whole dose curve; as a rule, active = well fitted inhibition curve with a large enough effect; inconclusive = small, poorly fitted or top-dose-only effect; inactive = no such curve, though single readings can be large or run the other way. A potency beside an inconclusive call is a rough fit, not a confirmed value.
# Assay: Primary qHTS for Inhibitors of ATXN expression; note: nearly all actives have a fitted effect of over 55% in size
# Details: HEK-293 ATXN2-luciferase reporter, luminescence, 24 h; activity change, negative = inhibition: at 57 µM (top of the series)
# In short: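 qHTS (up to 57 uM final) was run with 24 h compound exposure of reporter cells at 37 °C. Each well was multiplexed: SteadyGlo luminescence measured ATXN2-luciferase expression after a fluorogenic Gly-Phe-AFC viability readout (25 uM final).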
# % is set by controls: 0 for no effect and ±100 for the full control effect; potency is the fitted concentration of half-maximal effect; tags give direction and shape of the fitted curve.
Structure (SMILES),"activity change, negative = inhibition",Potency
COc1ccc(/C=N/NC(=O)COc2ccccc2-c2ccccc2)cc1,inactive: -37.9%,
Cc1ccc(-c2cc(C(=O)N/N=C/c3ccccc3)n[nH]2)o1,inactive: 6.86%,
O=C(C1CCC(CNS(=O)(=O)c2cccc3cccnc23)CC1)N1CCc2ccccc21 (stereo not given),,"inconclusive: 39.8 µM [inhibitor, single point]"
Cc1cc(C(=O)NCc2cccs2)nn1C,inactive: 8.91%,
COc1ccc(Cc2noc(CN3CCN(c4ccc(Cl)cn4)CC3)n2)cc1OC,,"inconclusive: 10.6 µM [inhibitor, partial curve, poor fit]"
O=C(Nc1ccccc1)Nc1ccc(C(=O)N2CCCC2)cc1,,"inconclusive: 14.1 µM [inhibitor, partial curve]"
CCCCn1c(NCc2ccc(OC)cc2O)nc2ccccc21,,"inconclusive: 0.891 µM [inhibitor, full curve, poor fit]"
COc1cc2nc(C3CCC3)nc(N3CCN(c4ccccn4)CC3)c2cc1OC,inactive: -14.9%,
COc1ccc(CN(C)C(C)C(=O)Nc2ccc([N+](=O)[O-])cc2Cl)cc1OC (stereo not given),,"inconclusive: 0.316 µM [inhibitor, full curve, poor fit]"
CCCCN(CC)CCNC(=O)c1cc2c(=O)[nH]c3ccccc3c2n1C,,inactive
CC(=O)c1cccc(NC(=O)Nc2ccc3c(c2)N(C)C(=O)CS3)c1,,"inconclusive: 31.6 µM [inhibitor, single point]"
CCOc1ccc(CNCc2c(C(=O)O)n(Cc3ccc(C)cc3)c3cc(C)ccc23)cc1,,"inconclusive: 39.8 µM [inhibitor, single point]"
COc1ccc2nc(NN=C(C)c3ccccn3)cc(C)c2c1,,"inconclusive: 3.77 µM [inhibitor, full curve, poor fit]"
CC(=O)N1CCN(C(C)=O)C1c1ccccc1,inactive: -2.27%,
COc1ccc2oc3cc(C)[n+]([O-])c(-c4ccc(Br)cc4)c3c2c1,,"inconclusive: 31.6 µM [inhibitor, single point]"
CC(=O)O[C@H]1[C@@H](O)[C@H](O)[C@H](Oc2c(O)c(C)c3c4c2[C@@H](C)CC[C@@H]4[C@@H](C)C[C@H]3C=C(C)C)O[C@H]1C,,"inconclusive: 35.5 µM [inhibitor, single point]"
Cc1cc(F)ccc1-c1cc(C(=O)N2CCN(c3ccncc3)CC2)[nH]n1,,"inconclusive: 31.6 µM [inhibitor, partial curve, poor fit]"
COC(=O)N1CCN(Cc2cccc(NC(=O)Nc3ccc(C)nc3)c2F)CC1,,"inconclusive: 1.72 µM [inhibitor, partial curve, poor fit]"
CCC(C)(C)n1nnnc1C(c1ccc(C)cc1)N(Cc1ccco1)Cc1cccs1 (stereo not given),,"inconclusive: 35.5 µM [inhibitor, partial curve, poor fit]"
COc1ccc2nc(NC(=O)c3cccc(-c4cc5ccccc5oc4=O)c3)sc2c1,,"inconclusive: 39.8 µM [inhibitor, single point]"

Structure (SMILES),"activity change, negative = inhibition",Potency
CCc1ccc(C(=O)Cn2ncc(Cl)c(Cl)c2=O)cc1,,"inconclusive: 23.8 µM [inhibitor, single point]"
O=C(Nc1ccc(Cl)c(S(=O)(=O)N2CCOCC2)c1)c1ccc2c(c1)OCCO2,,"inconclusive: 39.8 µM [inhibitor, single point]"
Cc1ccc(C)c(-c2cc(C(=O)NCc3cccs3)c3ccccc3n2)c1,,"inconclusive: 17.8 µM [inhibitor, partial curve, poor fit]"
COc1ccc(CNC(=O)Cn2ncn3c(cc4ccccc43)c2=O)cc1,,"inconclusive: 25.1 µM [inhibitor, single point]"
CCCCc1ccc(Nc2nc(CCC)cc(=O)[nH]2)cc1,,"inconclusive: 39.8 µM [inhibitor, single point]"
Cc1ccc(NC(=O)Cn2c(=O)oc3cc(S(=O)(=O)NCc4ccccc4)ccc32)cc1,inactive: -10.3%,
Cc1cccc(Cc2c(C)nc3nc(SCC(=O)O)nn3c2C)c1,,"inconclusive: 0.238 µM [inhibitor, partial curve, poor fit]"
Cc1cc(C(C)(C)CC(C)(C)C)ccc1OCCOCC[N+](C)(C)Cc1ccccc1,,"inconclusive: 22.4 µM [inhibitor, single point]"
O=C1/C(=C/c2ccc([N+](=O)[O-])cc2)C=C(c2ccccc2)N1c1ccccc1,inactive: -1.86%,
O=C(CN1C(=O)/C(=C/c2ccccc2)SC1=S)N1CCN(CCc2ccccn2)CC1,,"inconclusive: 39.8 µM [inhibitor, single point]"
Cc1ccc(N(CC(O)CON=C2c3ccccc3-c3ccccc32)S(C)(=O)=O)cc1 (stereo not given),,"inconclusive: 39.8 µM [inhibitor, single point]"
CCOc1cccc(C2c3c(-c4cc(C)ccc4O)n[nH]c3C(=O)N2Cc2ccco2)c1 (stereo not given),,"inconclusive: 35.5 µM [inhibitor, single point]"
COc1cc(OC)nc(Nc2nc(C(N)Cc3ccc(C(F)(F)F)cc3)cs2)n1 (stereo not given),,"inconclusive: 39.8 µM [inhibitor, single point]"
CCC[N+]1(CC#CCC(c2ccccc2)c2ccccc2)CCCCC1,,"inconclusive: 8.91 µM [inhibitor, single point]"
Cc1cccc(N=C2NC(=O)/C(=C/c3cccn3C)S2)c1C,inactive: -1.91%,
CCN(CC)C(=O)c1cccc(-c2csc(C(C)(O)c3ccccc3)n2)c1 (stereo not given),,"inconclusive: 31.6 µM [inhibitor, single point]"
CCCCCC(=O)Nc1cccc(C2=NOC3(C2)C[C@H](C(N)=O)N(C(=O)COc2ccc(Cl)cc2)C3)c1 (stereo not given in full),,"inconclusive: 39.8 µM [inhibitor, single point]"
COc1ccc(NC2=NCC(Cc3ccc(Br)cc3)S2)cc1 (stereo not given),,"inconclusive: 31.6 µM [inhibitor, partial curve, poor fit]"
Cc1ccc2nc(-c3ccccc3)c(Cc3ccccc3C(F)(F)F)n2c1,,"inconclusive: 39.8 µM [inhibitor, single point]"
NC(=O)CC(NC(=O)Cc1cccc2ccccc12)c1ccc(N2CCC(Br)CC2)c([N+](=O)[O-])c1 (stereo not given),,"inconclusive: 39.8 µM [inhibitor, single point]"
